# According to PubChem BioAssay AID602179 (National Center for Advancing Translational Sciences (NCATS), 2012):
# The campaign covered roughly 390,000 compounds. About 360 (0.092%) were called active. The shares of active, inactive and inconclusive entries below differ from those in the screen. The call rests on the fitted dose curve; in most records, active means well fitted inhibition curve with a large enough effect; inconclusive means small, poorly fitted or top-dose-only effect; inactive means no such curve, though single readings can be large or run the other way. A potency beside an inconclusive call is a rough fit, not a confirmed value.
# Molecular target: Isocitrate dehydrogenase [NADP] cytoplasmic (Homo sapiens) (UniProt O75874)
# Experiment: qHTS for Inhibitors of mutant isocitrate dehydrogenase 1 (IDH1): qHTS; further: nearly all actives have a fitted effect of over 65% in size
# Conditions: IDH1-R132H enzyme, NADPH consumption, diaphorase/resazurin fluorescence; series mostly up to 76.6 µM; activity change, negative = inhibition: at the top concentration
# Outline: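 IDH1-R132H (0.5 ug/mL) preincubated 30 min with compound, then NADPH (0.016 mM) and alpha-KG (2 mM) added; 80 min at RT, pH 7.5. Remaining NADPH coupled via diaphorase/resazurin to fluorescence (540/590 nm); concentration-response curves normalized to no-enzyme control.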
# On the % scale 0 is the no-effect control and ±100 the full control effect; potency means the concentration at half of the fitted maximal effect; tags describe the fitted curve by direction and shape.
SMILES,Potency,"activity change, negative = inhibition"
CCOC(=O)/C(C#N)=C1\C(=O)N(Cc2ccccc2)c2ccccc21,"inconclusive: 46.5 µM [inhibitor, partial curve, poor fit]",
COc1cccc(Nc2sc(C(=O)c3ccc(Cl)cc3)c(N)c2C(=O)NCCc2ccc(OC)c(OC)c2)c1,"inconclusive: 44.7 µM [inhibitor, single point]",
Cc1ccc(N2C(=O)c3n[nH]c(C)c3C2c2ccc(C(C)C)cc2)cc1 (configuration not stated),"inconclusive: 50.1 µM [inhibitor, single point]",
CC(C)c1ccc(S(=O)(=O)Nc2ccc(O)c(Sc3nc4ccccc4s3)c2)cc1,"inconclusive: 44.7 µM [inhibitor, partial curve, poor fit]",
O=C1/C(=C/c2cccnc2)Oc2cc(OS(=O)(=O)c3ccc(F)cc3)ccc21,"inconclusive: 26.1 µM [inhibitor, partial curve]",
Cc1cccc(CS(=O)(=O)c2ncc(Cl)c(C(=O)NCc3ccc4c(c3)OCO4)n2)c1,,inactive: -2.76%
COc1ccc(-c2nnc(SCC(=O)Nc3ccc(C(C)=O)cc3)nc2-c2ccc(OC)cc2)cc1,,inactive: -5.48%
CCOc1ccc(Cn2c(O)cc(=O)[nH]c2=O)cc1,,inactive: -4.63%
Cc1ccc(N(C(=O)CCC(=O)Nc2cc(C)on2)C(C(=O)NC2CCCC2)c2ccccc2)cc1 (configuration not stated),"inconclusive: 46.5 µM [inhibitor, partial curve]",
COc1ccc(-c2cn3nc(N4CCC(C(=O)Nc5cccc(OC)c5)CC4)sc3n2)cc1,"inconclusive: 50.1 µM [inhibitor, single point]",
CC(C)(C)C(=O)Nc1ccccc1N1CCN(c2ccc(F)cc2)CC1,"inconclusive: 44.7 µM [inhibitor, single point]",
CCCC(=O)NC(c1cccs1)c1cc([N+](=O)[O-])c2cccnc2c1O (configuration not stated),"inconclusive: 50.1 µM [inhibitor, single point]",
Cc1ccc(CN(C(=O)COc2ccc(C(C)C)cc2)C2CCS(=O)(=O)C2)o1 (configuration not stated),,inactive: 0%
COc1ccc(CN(CCC(c2ccccc2)c2ccc(OC(C)C)cc2)C(=O)CCl)cc1OC (configuration not stated),"inconclusive: 32.9 µM [inhibitor, partial curve]",
O=C(O)CCCCCN1C(=O)/C(=C/c2cn(-c3ccccc3)nc2-c2cccs2)SC1=S,"inconclusive: 16.5 µM [inhibitor, partial curve, poor fit]",
CCn1c(=O)n(CC)c2cc(N3CCCC3)c(NC(=O)c3ccccc3OC)cc21,,inactive: -13%
CC(C)(C)c1ccc(C2NC(=O)c3n[nH]c(-c4cccs4)c32)cc1 (configuration not stated),"inconclusive: 50.1 µM [inhibitor, single point]",
